Data: PubChem BioAssay AID624255 (Broad Institute, 2012)
Screen size: about 77,000 compounds; about 4,600 (6%) were called active. Inconclusive means that the source gave no clear call. Such entries were picked first, then a sample of the others.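 Rule for the calls: active = mean inhibition above about 93%, with at least 55% of replicates each passing it (limit read from the data, passing the limit was not always enough); inconclusive = only one of those two conditions holds; inactive = neither condition holds.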

Test: T. cruzi intracellular proliferation inhibitors, primary screen, cell-based, beta-gal Tulahuen parasites, NIH3T3 host, luminescence (AID 624255)
Details: T. cruzi beta-gal in NIH3T3, GalScreen luminescence, 90 h; at 8.34 µM; stronger effect = higher value

| Compound | inhibition |
| --- | --- |
| CC(=O)N(C)C[C@@H]1Oc2cc(-c3cccnc3)ccc2S(=O)(=O)N([C@H](C)CO)C[C@H]1C | inactive: -140% |
| Cc1ccccc1S(=O)(=O)N(C)C[C@H]1OCc2ccccc2-c2c(n(C)c3ccccc23)C(=O)N([C@H](C)CO)C[C@@H]1C | inconclusive: 96.4% |
| COc1cccc(-c2ccc3c(c2)O[C@@H](CN(C)Cc2cncnc2)[C@H](C)CN([C@H](C)CO)S3(=O)=O)c1 | inconclusive: 103% |
| C[C@@H]1CN([C@@H](C)CO)S(=O)(=O)c2ccc(-c3ccc(C(=O)N(C)C)cc3)cc2O[C@@H]1CN(C)Cc1ccc2c(c1)OCO2 | inconclusive: 94.7% |
| C[C@@H]1CN([C@H](C)CO)S(=O)(=O)c2ccc(C3=CCCCC3)cc2O[C@H]1CN(C)C(=O)C1CCC1 | inactive: 58.7% |
| C[C@H](CO)N1C[C@H](C)[C@H](CN(C)Cc2ccc(-c3ccccc3)cc2)Oc2ccc(NS(=O)(=O)c3ccc(Cl)cc3)cc2C1=O | active: 112% |
| CC(C)CC#Cc1ccc2c(c1)O[C@@H](CN(C)C(=O)Cc1ccncc1)[C@@H](C)CN([C@@H](C)CO)S2(=O)=O | inconclusive: 87.7% |
| O=C(c1cccc(F)c1)N1CC[C@@H]2[C@H]1c1cc(C#Cc3cccc(F)c3)ccc1N[C@@H]2CO | active: 103% |
| COc1cccc(-c2ccc3c(c2)[C@H]2[C@H](CCN2S(=O)(=O)c2ccccc2OC)[C@H](CO)N3)c1 | inconclusive: 95.8% |
| C[C@@H]1CN([C@H](C)CO)S(=O)(=O)c2ccc(C3=CCCC3)cc2O[C@H]1CN(C)Cc1cccnc1 | active: 101% |
| C[C@H](CO)N1C[C@H](C)[C@H](CN(C)Cc2ccc3c(c2)OCO3)OCCCC[C@H](C)Oc2ccc(NC(=O)Nc3ccc(C(F)(F)F)cc3)cc2C1=O | inconclusive: 124% |
| CO[C@H]1CN(C)C(=O)c2ccc(NC(=O)NC(C)C)cc2OC[C@@H](C)N(Cc2ccccn2)C[C@H]1C | active: 109% |
| CO[C@H](CN(C)C(=O)c1ccc2c(c1)OCO2)[C@H](C)CN([C@H](C)CO)S(=O)(=O)c1ccc(C)cc1 | inactive: 19.4% |
| C[C@@H]1CN([C@H](C)CO)C(=O)c2cc(NC(=O)Nc3ccc(F)cc3)ccc2O[C@@H](C)CCCCO[C@H]1CN(C)S(=O)(=O)c1ccccc1 | inconclusive: 111% |
| Cc1noc(C)c1S(=O)(=O)Nc1ccc2c(c1)C(=O)N([C@@H](C)CO)C[C@@H](C)[C@@H](CN(C)C(=O)Nc1ccc(C(F)(F)F)cc1)OCCCC[C@@H](C)O2 | inconclusive: 122% |
| CCCC#Cc1ccc([C@@H]2[C@H](C#N)N(C(=O)C3CCC3)[C@H]2CO)cc1 | inconclusive: 95.3% |
| CN1C(=O)c2cc(NC(=O)Cc3cccs3)ccc2OC[C@@H]2O[C@@H](CC(=O)N[C@H]3CCN(Cc4ccccc4)C3)CC[C@@H]21 | inconclusive: 96.1% |
| Cc1ccc(S(=O)(=O)N(C)C[C@H]2OCCCC[C@@H](C)Oc3ccc(NS(=O)(=O)c4cccs4)cc3C(=O)N([C@@H](C)CO)C[C@H]2C)cc1 | active: 103% |
| COc1cccc(C#Cc2ccc3c(c2)O[C@@H](CN(C)C(=O)c2ccccn2)[C@@H](C)CN([C@@H](C)CO)S3(=O)=O)c1 | inconclusive: 107% |

| Compound | inhibition |
| --- | --- |
| C[C@@H]1CCCCO[C@@H](CN(C)Cc2ccccc2)[C@@H](C)CN([C@H](C)CO)C(=O)c2cc(NC(=O)Nc3ccc(C(F)(F)F)cc3)ccc2O1 | inconclusive: 95.6% |
| COc1ccc(CN(C)C[C@H]2OCCCC[C@@H](C)Oc3ccc(NC(=O)Nc4cccc5ccccc45)cc3C(=O)N([C@@H](C)CO)C[C@@H]2C)cc1 | inconclusive: 120% |
| C[C@@H]1CN([C@@H](C)CO)S(=O)(=O)c2ccc(-c3cccc(F)c3)cc2O[C@@H]1CN(C)S(=O)(=O)c1ccccc1 | active: 117% |
| CCCN1C[C@H](C)[C@@H](OC)CN(C)C(=O)c2cc(NC(=O)Nc3c(C)noc3C)ccc2OC[C@H]1C | inactive: -18.5% |
| C[C@H]1CN([C@@H](C)CO)C(=O)c2ccccc2-c2ccccc2CO[C@@H]1CN(C)C(=O)Cc1ccccc1 | inactive: 36.3% |
| O=C([C@H]1[C@H](CO)[C@H]2Cn3c(ccc(-c4ccncc4)c3=O)[C@H]2N1CCC(F)(F)F)N1CCOCC1 | inactive: -14.3% |
| COc1ccc(CN(C)C[C@@H]2OCCCC[C@@H](C)Oc3ccc(NC(=O)Nc4ccc5c(c4)OCO5)cc3C(=O)N([C@@H](C)CO)C[C@@H]2C)cc1 | inconclusive: 95.1% |
| C[C@H](CO)N1C[C@H](C)[C@H](CN(C)S(C)(=O)=O)Oc2cc(C#Cc3ccc(F)cc3)ccc2S1(=O)=O | active: 115% |
| C[C@@H]1CN([C@H](C)CO)C(=O)c2cc(NC(=O)c3ccncc3)ccc2O[C@@H](C)CCCCO[C@H]1CN(C)Cc1ccccc1 | active: 98.1% |
| C[C@@H]1CN([C@H](C)CO)C(=O)c2cc(NC(=O)C3CCCCC3)ccc2O[C@@H](C)CCCCO[C@@H]1CN(C)Cc1ccc(C(F)(F)F)cc1 | inconclusive: 118% |
| N#Cc1cccc(-c2ccc([C@H]3[C@@H](CO)N4CCCCN(C(=O)Nc5ccccc5)C[C@H]34)cc2)c1 | inactive: 75.3% |
| O=C(C[C@H]1CC[C@@H](NC(=O)c2ccncc2)[C@@H](CO)O1)Nc1ccccc1 | inactive: 19.5% |
| CN1C[C@H](O)COC[C@@H]2O[C@@H](CC(=O)N3CCN(c4ccccc4)CC3)CC[C@H]21 | inconclusive: 95.6% |
| C[C@@H]1CCCCO[C@@H](CN(C)S(=O)(=O)c2ccc(Cl)cc2)[C@H](C)CN([C@@H](C)CO)C(=O)c2cc(NS(=O)(=O)c3ccc(Cl)cc3)ccc2O1 | inactive: 61.3% |
| C[C@@H]1CN([C@H](C)CO)C(=O)c2cc(C#CC3CC3)cnc2O[C@@H]1CN(C)C(=O)C1CCCCC1 | inactive: 23.8% |
| COc1ccc(NC(=O)N2CCCCN3[C@H](C2)[C@@H](c2ccc(C#Cc4ccccc4)cc2)[C@@H]3CO)cc1 | inconclusive: 96.5% |
| CC=Cc1ccc2n(c1=O)C[C@H]1[C@H](CO)[C@@H](C(=O)NC3CCCC3)N(Cc3ccccc3)[C@@H]21 (mixture of isomers) | inactive: 42.7% |
| Cc1ccccc1S(=O)(=O)N(C)C[C@H]1OCc2ccccc2-c2ccccc2C(=O)N([C@H](C)CO)C[C@@H]1C | inconclusive: 105% |
| C[C@@H]1CN([C@@H](C)CO)C(=O)c2cc(NS(=O)(=O)c3ccc(Cl)cc3)ccc2O[C@@H]1CN(C)Cc1ccc(-c2ccccc2)cc1 | inconclusive: 90% |

| Compound | inhibition |
| --- | --- |
| COc1ccccc1C#Cc1ccc2c(c1)O[C@H](CN(C)Cc1ccccc1)[C@@H](C)CN([C@@H](C)CO)S2(=O)=O | active: 121% |
| COc1cccc(S(=O)(=O)N2C[C@@H](O)COC[C@@H]3O[C@@H](CC(=O)N4CCOCC4)CC[C@H]32)c1 | inactive: 7.99% |
| COc1ccc(S(=O)(=O)Nc2ccc3c(c2)C(=O)N([C@@H](C)CO)C[C@@H](C)[C@H](CN(C)S(=O)(=O)c2ccc(OC)cc2)OCCCC[C@@H](C)O3)cc1 | inconclusive: 89.3% |
| C[C@@H]1CN([C@H](C)CO)C(=O)c2cccc(NC(=O)Nc3ccc(F)cc3)c2O[C@H]1CN(C)C(=O)Nc1ccc(F)cc1 | inactive: 35.2% |
| C[C@H]1CCCCO[C@@H](CN(C)C(=O)Nc2ccc(F)cc2)[C@@H](C)CN([C@@H](C)CO)C(=O)c2cc(NC(=O)Nc3ccc(C(F)(F)F)cc3)ccc2O1 | active: 102% |
| Cc1cccc(-c2ccc([C@H]3[C@@H](CO)N4CCCCN(C(=O)c5ccc6c(c5)OCO6)C[C@@H]34)cc2)c1 | inconclusive: 122% |
| CN(C)C(=O)c1ccc(-c2ccc([C@H]3[C@@H](CO)N4CCCCN(Cc5cccnc5)C[C@H]34)cc2)cc1 | inconclusive: 98.1% |
| COc1ccc(S(=O)(=O)N(C)C[C@H]2Oc3cc(Br)ccc3S(=O)(=O)N([C@H](C)CO)C[C@H]2C)cc1 | inconclusive: 95.3% |
| CCCNC(=O)N1CC[C@@H]2[C@H]1c1cc(-c3ccccc3)ccc1N(C)[C@H]2CO | inconclusive: 95.8% |
| CCCC#Cc1ccc2c(c1)O[C@H](CN(C)C(=O)COC)[C@@H](C)CN([C@@H](C)CO)S2(=O)=O | inactive: 3.38% |
| COCC(=O)Nc1ccc2c(c1)C(=O)N(C)C[C@@H](OC)[C@H](C)CN(C(=O)c1cnccn1)[C@H](C)CO2 | inactive: -0.562% |
| C/C=C/c1ccc([C@@H]2[C@H](CO)N(C(=O)C3CC3)[C@H]2CN(CC)C(C)=O)cc1 | active: 100% |
| Cc1cccc(-c2ccc([C@@H]3[C@@H](CO)N4CCCCN(S(=O)(=O)c5cn(C)cn5)C[C@@H]34)cc2)c1 | inconclusive: 96% |
| O=C(C[C@H]1C=C[C@@H](NC(=O)c2ccc(F)cc2)[C@@H](CO)O1)NCCc1ccccc1 | inactive: 3.56% |
| CC=Cc1ccc2n(c1=O)C[C@@H]1[C@@H](CO)[C@H](C(=O)NCC(F)(F)F)[C@H]2N1C(C)=O (mixture of isomers) | inactive: -3.31% |
| C[C@H](CO)N1C[C@H](C)[C@@H](CN(C)Cc2ccc(C(=O)Nc3ccccc3N)cc2)Oc2c(cccc2N(C)C)C1=O | inconclusive: 108% |
| CCCNC(=O)C[C@@H]1CC[C@@H]2[C@H](COc3ccc(NC(=O)C4CCOCC4)cc3C(=O)N2C)O1 | inactive: 47.3% |
| O=C(C1CCC1)N1CCCCN2[C@H](CO)[C@H](c3ccc(C#CC4(O)CCCC4)cc3)[C@@H]2C1 | inconclusive: 95.5% |
| C[C@H](CO)N1C[C@H](C)[C@H](CN(C)Cc2ccccc2)Oc2cc(C3=CCCCC3)ccc2S1(=O)=O | inconclusive: 99.1% |
